# According to the supplement of paper PMC4466236:
# The full ranking holds about 33,000 sequences; the median of “E-score (dimensionless, -0.5 to 0.5)” is about -0.058, and the highest 2% start at about 0.35. The list shows a part of the results.
# Tested on: MvaT
# Test: PBM 8-mer E-score (mean of HK and ME arrays) (E-score (dimensionless, -0.5 to 0.5)); higher = stronger relative binding preference; most listed sequences are background and not binding sites
# Experimental: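 Protein binding microarray: GST-tagged full-length MvaT (P. aeruginosa PAO1) bound to two universal double-stranded 60-mer arrays (ME and HK), each with a constant 25-mer primer and a variable 35-mer region covering all 8-mers. The 8-mer E-score (rank-based, range -0.5 to 0.5, >0.45 = specific binding) is the mean of the two arrays.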
row,Sequence,PBM 8-mer E-score
1,TGTATACA,0.351
2,GTGCATTA,0.259
3,GCAGCCTA,-0.231
4,ATTTAAGC,0.309
5,CGAATCCA,-0.19
6,CTTCATTA,0.338
7,CTACTTCC,0.0752
8,TAGTGATA,0.216
9,CGAGGTAC,-0.301
10,AAATGGGC,-0.0679
11,ATATTCTA,0.348
12,AGCTGACG,-0.315
13,GGACCAAC,-0.0023
14,CGACATGA,0.0239
15,TAGCTTCA,-0.0931
16,CATATGTA,0.252
17,GTCAGGTA,-0.0811
18,ATAGAGCA,-0.034
19,GTATGTGA,0.154
20,CGTAAACA,-0.0446
21,GACGTAGC,-0.0794
22,ACGCTACG,-0.0596

row,Sequence,PBM 8-mer E-score
1,CTGTCCTC,-0.192
2,AACCAGCG,-0.109
3,AGGGATAC,-0.1
4,GGTCAACA,-0.0268
5,CATTTTGC,-0.123
6,CATCAACC,-0.195
7,ACAAACAC,0.265
8,GTTGCTGA,0.0521
9,CCTTTTCC,-0.211
10,TACGAGCA,-0.0785
11,GGAGATGA,-0.186
12,AAACGAAC,0.0205
13,CGCTACCA,-0.153
14,CAACACCA,0.0286
15,GGTGATGA,-0.178
16,ATGAAGCA,-0.0371
17,ACTTTGAC,0.0802
18,TAGTCCCA,-0.0362
19,GATTCCTA,-0.0833
20,ACTAGAAA,0.126
21,AACCCAAC,0.113
22,AGCAGAAA,-0.0176

row,Sequence,PBM 8-mer E-score
1,ATGCTCAG,-0.303
2,AGAGATGA,-0.171
3,AGCGCATG,-0.12
4,CATTAGCG,-0.0599
5,CTCAATAC,0.129
6,GTTCATGA,0.0893
7,ACAGCTTA,0.0908
8,CTTGAAGA,-0.105
9,CGTAATGA,0.00917
10,ATAAGGAT,0.139
11,CGAGGGTA,-0.0625
12,TAATATGA,0.354
13,ACTATACA,0.241
14,TGATCCAA,-0.0322
15,AAGTACTA,0.257
16,AATGACGT,0.0251
17,ATAGCTAT,0.223
18,CATCCGCG,-0.146
19,ATTGCGTA,0.139
20,AAGTGGCC,-0.204
21,TATAAAAA,0.371
22,AGAGGTAG,-0.21

row,Sequence,PBM 8-mer E-score
1,AAGTCATT,0.131
2,CAATGAGC,-0.229
3,CGGCGTCC,-0.226
4,CGAGCCCA,-0.142
5,AGTCGCCC,-0.305
6,ACCGCTAC,-0.172
7,AGTCGGAT,-0.221
8,CGCTATGA,-0.13
9,ATGCTAGG,-0.121
10,CTCGAGAA,-0.0364
11,AGTAGTTA,0.265
12,GTAAAACA,0.266
13,GCTGGTAA,-0.0318
14,CGGCATCA,-0.116
15,AGGTGCAT,-0.0802
16,CAGCTGTC,-0.223
17,GCTACCAC,-0.103
18,AACACCGA,-0.0333
19,AAGGGGTA,-0.15
20,TGCGTGAA,-0.185
21,CGAAACAG,-0.129
22,AACTCTCC,0.0171

row,Sequence,PBM 8-mer E-score
1,AGACATGC,-0.0895
2,CGGCGCCG,-0.165
3,TAAACTCA,0.255
4,CGAGTCAA,0.00213
5,CGCAGATC,-0.178
6,CGACTACG,-0.11
7,CTGATACA,0.0751
8,AGCCACAC,-0.00174
9,AAACTCAT,0.0651
10,ATACCGTC,-0.138
11,AAGTCTCC,-0.239
12,CATGAGCA,0.00704
13,CAATTGTG,0.129
14,ATGCATGA,-0.142
15,CTAGACTC,-0.29
16,AAGCCTAA,-0.0321
17,ACGCGTCA,-0.199
18,GTCTGACA,-0.13
19,TAGGACGA,-0.0097
20,CCGACCGC,-0.312
21,TAACATCA,0.259
22,ACCCAGGG,-0.234
